Among all 310,000 compounds or so, about 2,200 (0.71%) showed an effect of 50% or more. The effect is printed as a negative number. This is one part of the list.

Sequence of human ether-à-go-go-related gene (hERG) potassium channel (Q12809 whole entry, looked up): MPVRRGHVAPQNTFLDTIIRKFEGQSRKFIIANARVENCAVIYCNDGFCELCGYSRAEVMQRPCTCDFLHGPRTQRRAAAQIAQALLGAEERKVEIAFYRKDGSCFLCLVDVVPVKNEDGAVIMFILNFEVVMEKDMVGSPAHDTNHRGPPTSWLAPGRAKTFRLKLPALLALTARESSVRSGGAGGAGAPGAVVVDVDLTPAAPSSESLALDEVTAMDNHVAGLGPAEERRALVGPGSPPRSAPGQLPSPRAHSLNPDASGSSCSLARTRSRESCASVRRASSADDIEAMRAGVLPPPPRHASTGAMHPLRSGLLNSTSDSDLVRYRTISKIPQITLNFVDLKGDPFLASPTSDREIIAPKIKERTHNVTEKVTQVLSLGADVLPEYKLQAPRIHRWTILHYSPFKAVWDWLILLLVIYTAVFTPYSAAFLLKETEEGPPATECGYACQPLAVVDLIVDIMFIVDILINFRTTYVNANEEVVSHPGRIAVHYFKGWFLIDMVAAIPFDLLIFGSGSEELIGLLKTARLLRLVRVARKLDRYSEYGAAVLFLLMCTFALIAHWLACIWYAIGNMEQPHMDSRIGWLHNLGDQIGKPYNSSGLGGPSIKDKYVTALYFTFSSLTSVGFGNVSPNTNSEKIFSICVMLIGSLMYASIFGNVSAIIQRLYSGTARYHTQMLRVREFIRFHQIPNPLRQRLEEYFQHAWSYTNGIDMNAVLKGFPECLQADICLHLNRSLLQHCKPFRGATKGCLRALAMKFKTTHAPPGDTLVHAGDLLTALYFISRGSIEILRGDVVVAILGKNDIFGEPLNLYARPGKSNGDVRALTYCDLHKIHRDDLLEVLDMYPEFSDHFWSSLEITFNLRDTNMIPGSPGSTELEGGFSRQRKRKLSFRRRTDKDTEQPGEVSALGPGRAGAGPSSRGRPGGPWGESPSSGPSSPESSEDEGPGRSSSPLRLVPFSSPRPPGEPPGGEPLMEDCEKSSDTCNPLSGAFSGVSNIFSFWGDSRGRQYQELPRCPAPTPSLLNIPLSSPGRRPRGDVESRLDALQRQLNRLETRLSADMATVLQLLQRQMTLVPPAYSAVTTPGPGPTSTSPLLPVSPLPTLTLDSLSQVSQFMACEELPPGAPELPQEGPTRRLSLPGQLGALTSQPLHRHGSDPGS

The assay has as its target human ether-à-go-go-related gene (hERG) potassium channel (human, UniProt Q12809). As to the kind of experiment: primary screen, population patch clamp on CHO cells stably expressing hERG.
`O=C(Nc1c(C(=O)N2CCCCC2)cnn1-c1ccccc1)c1ccccc1F`: the “hERG current change (%, negative = inhibition) at 1uM” value turned out to be 10.2%. For the compound `Cc1cc(NS(=O)(=O)c2ccc(NC(=O)c3ccc(Br)o3)cc2)nc(C)n1`, the “hERG current change (%, negative = inhibition) at 1uM” value was 17%.

`CCn1c(Cn2nnc(-c3ccccc3)n2)nnc1SCC(=O)Nc1ccc(N(C)C)cc1`: the “hERG current change (%, negative = inhibition) at 1uM” value is given as 20.6%. As to `O=C(c1ccco1)N1CCN(C(=O)N2c3ccccc3Sc3ccccc32)CC1`, the “hERG current change (%, negative = inhibition) at 1uM” value was -2.52%. Turning to `CCCCS(=O)(=O)/C=C\C1C2C=CC(C2)C1S(=O)(=O)CCCC` (centres unmarked), the “hERG current change (%, negative = inhibition) at 1uM” value was found to be 3.31%. Consider `CC1CCc2nc(NC(=O)C3CCCO3)sc2C1` (centres unmarked), for which the “hERG current change (%, negative = inhibition) at 1uM” value is listed as 2.12%.

Take `O=C(CNC(=O)c1ccc(Br)o1)NNC(=O)c1ccccc1O`: the “hERG current change (%, negative = inhibition) at 1uM” value is on record as 3.31%. Regarding `Cc1ccccc1NC(=O)Cn1cccc1`, the “hERG current change (%, negative = inhibition) at 1uM” value is -3.27%. As for `COc1ccc(/C=C(/NC(=O)c2ccc(OC)cc2)C(=O)NCCc2c[nH]c3ccccc23)cc1`, the figure is -1.5%; as for `CSc1nnc(Cc2sc(-c3ccccc3)nc2-c2ccccc2)o1`, 12.1%. With `O=C1OCCC1Sc1nnc(-c2ccco2)n1-c1ccccc1` (centres unmarked), the “hERG current change (%, negative = inhibition) at 1uM” value is given as 14%. Take `CC(C)(C)C(=O)NCCN1CCN(C(=O)C(C)(C)C)CC1`: the “hERG current change (%, negative = inhibition) at 1uM” value is 3.83%. Turning to `CCN(CC)CCNC(=O)c1cc(-c2ccc(Br)s2)nc2ccccc12`, the “hERG current change (%, negative = inhibition) at 1uM” value worked out at 11.7%. As for `COC(=O)c1[nH]c2ccc(F)cc2c1NS(=O)(=O)c1ccc(F)c(C)c1`, the figure is 2.13%; as for `COc1ccccc1C(=O)NC(C)c1nc2ccccc2[nH]1` (centres unmarked), 22.4%. As for `O=C1Nc2ccccc2OC1CC(=O)N1CCN(c2cccc(C(F)(F)F)c2)CC1` (centres unmarked), the “hERG current change (%, negative = inhibition) at 1uM” value is -9.68%. The result for `CC(NC(=O)C(NS(=O)(=O)c1cccs1)C(C)C)c1ccc(S(N)(=O)=O)cc1` (centres unmarked) reads 9.56%; that for `Cc1ccc(NC2c3ccccc3C(=O)N2c2cccnc2)cc1` (centres unmarked), 9.03%; that for `Cc1ccnc(NC(=O)/C=C/c2ccccc2Cl)c1`, -3.23%. The result for `O=C(NCC1COc2ccccc2O1)c1cn(Cc2ccc(F)cc2)nn1` (centres unmarked) reads -2.3%. The result for `COCCCNC(=O)c1c(N)n(/N=C/c2cccnc2)c2nc3ccccc3nc12` reads 12.5%; that for `Cc1sc2nc(CN(C(=O)c3cccs3)C3CCCC3)[nH]c(=O)c2c1C`, 12.7%; that for `O=C1c2ccccc2C(=O)C1(O)O`, 18%. With `N#Cc1ccc(NC(=O)c2cc(S(=O)(=O)N3CCOCC3)ccc2N2CCCC2)cc1`, the “hERG current change (%, negative = inhibition) at 1uM” value was -58.9%. Take `O=C(COc1ccc(Cl)cc1Cl)NNC(=S)NCc1ccco1`: the “hERG current change (%, negative = inhibition) at 1uM” value amounted to 13.1%. The result for `Cc1ccc(C)c(N(CC(=O)NC2CCCC2)C(=O)c2csnn2)c1` reads 10.9%; that for `CC(OC(=O)Cc1n[nH]c(=O)c2ccccc12)C(=O)Nc1ccc(Cl)cn1` (centres unmarked), 0.491%; that for `Cc1ccc(Nc2nc(CSc3nnnn3C)cs2)cc1`, 1.3%. The result for `CN(C)S(=O)(=O)c1ccc(Cl)c(C(=O)Nc2cccc3ncccc23)c1` reads 12.2%; that for `COc1cc(OC)cc(C(=O)NCCSC2CCCCC2)c1`, 11.3%. As for `O=C(c1cnccn1)N1CCc2ccccc2C1`, the figure is 6.48%; as for `O=C(NS(=O)(=O)c1ccccc1)c1ccccc1O`, 0.636%; as for `CN(C(=O)COc1ccc(-c2nnco2)cc1)C1CCS(=O)(=O)C1` (centres unmarked), -0.758%. With `COc1ccc(N2CC(C(=O)NC3CC(C)(C)NC(C)(C)C3)CC2=O)cc1` (centres unmarked), the “hERG current change (%, negative = inhibition) at 1uM” value is 0.081%. `CCN(CC)S(=O)(=O)c1ccc(Cl)c(NC(=O)COC(=O)C2CCCCC2)c1`: the “hERG current change (%, negative = inhibition) at 1uM” value is given as 3.05%. The result for `CS(=O)(=O)Nc1cccc(C2=NN(C(=O)c3ccc(F)cc3)C(c3cccs3)C2)c1` (centres unmarked) reads 10.2%. As for `O=C(/C=C/NNC(=O)c1ccccc1)c1ccccc1`, the figure is 2.02%; as for `Cc1ccc(C2CC(c3ccco3)=NN2S(C)(=O)=O)cc1` (centres unmarked), 10.5%; as for `COC(=O)c1cccc(CN2C(=O)SC(Nc3ccc(C)cc3)C2=O)c1` (centres unmarked), 12.6%. As for `CN(CC(=O)NC1CCN(Cc2ccccc2)CC1)S(=O)(=O)c1ccc(Cl)s1`, the figure is -13.6%; as for `CCOc1ncccc1C(=O)Nc1cc(S(=O)(=O)N2CCCCC2)ccc1Cl`, 23.2%; as for `O=C(NCc1ccc2c(c1)OCO2)c1n[nH]c(=O)c2ccccc12`, 15.4%. `COc1ccc(-c2noc(=O)n2Cc2cc(C)ccc2C)cc1`: the “hERG current change (%, negative = inhibition) at 1uM” value turned out to be 4.48%. For the compound `O=C(COC(=O)Cc1ccsc1)Nc1ccccc1`, the “hERG current change (%, negative = inhibition) at 1uM” value was -0.148%.

Consider `COc1ccc(-n2nc3c(c2NC(=O)CCCCl)CSC3)cc1`, for which the “hERG current change (%, negative = inhibition) at 1uM” value is given as 11.8%. `Cc1ccc(S(=O)(=O)N2CC(O)CC2C(=O)OCc2nc3sc(C)c(C)c3c(=O)[nH]2)cc1` (centres unmarked): the “hERG current change (%, negative = inhibition) at 1uM” value is reported as 12.6%. The result for `O=[N+]([O-])c1ccccc1S(=O)(=O)Nc1ccc(-c2ccc3nncn3n2)cc1` reads -16.1%; that for `COc1ccc(C)cc1Nc1nc(-c2c[nH]c3ccccc23)cs1`, 6.9%.

On to `COc1cccc(NC(=S)NCc2ccccn2)c1`, for which the “hERG current change (%, negative = inhibition) at 1uM” value worked out at 11.4%. On to `CCN1CCN(c2ccc(S(=O)(=O)N3CCCCC3)cc2NC(=O)/C=C/c2cc(OC)ccc2OC)CC1`, for which the “hERG current change (%, negative = inhibition) at 1uM” value is -1.04%.

For `c1ccc2nc3c(nc2c1)c1ccccc1n3CCN1CCOCC1`, the “hERG current change (%, negative = inhibition) at 1uM” value is given as -13.8%. Turning to `Cc1cc(/C=N/NC(=O)c2c(Br)cnn2C)c(C)n1-c1cccc(Br)c1`, the “hERG current change (%, negative = inhibition) at 1uM” value worked out at 15.9%. As for `Cc1cc(NC(=O)CSc2nnc(C(C)N(C)C)n2Cc2ccccc2)no1` (centres unmarked), the figure is 17.4%. Turning to `S=C(NCCC1=CCCCC1)Nc1ccccc1`, the “hERG current change (%, negative = inhibition) at 1uM” value is given as 11.7%.

Consider `Cc1ccc(C)c(NC(=S)N2CCN(c3ccccn3)CC2)c1`, for which the “hERG current change (%, negative = inhibition) at 1uM” value amounted to 17.1%. As for `CCOc1ccccc1NC(=O)CN1CCN(C(=O)C2CCCO2)CC1` (centres unmarked), the figure is 10.4%; as for `N#Cc1sc(NCc2ccccc2)nc1Cl`, 2.35%; as for `O=C(CCC(=O)Nc1cccnc1)Nc1cccnc1`, 15.2%. `CCOC(=O)C1C(=O)NC(c2ccccc2)=NC1c1ccc(Br)cc1` (centres unmarked): the “hERG current change (%, negative = inhibition) at 1uM” value turned out to be 10.3%. The result for `CC(=O)/C=C\c1ccccc1OC(=O)c1cc2ccccc2oc1=O` reads 16.3%; that for `O=Cc1cn(CCC(=O)O)nc1-c1cccc(Cl)c1`, 5.84%. The result for `Cn1cc(Br)c(C(=O)NNC(=O)c2ccc(Br)cc2)n1` reads 11.5%; that for `Cn1nnnc1SCC(=O)Nc1ccccc1Cl`, 11.4%; that for `O=C(C[n+]1ccccc1)N/N=C/c1ccccc1[N+](=O)[O-].[Cl-]`, 31.2%. For `C=C1CCC(O)C2(C)CCC3C(C)C(=O)OC3C12O` (centres unmarked), the “hERG current change (%, negative = inhibition) at 1uM” value is listed as 11.3%. As for `Cc1cc(NC(=O)CCc2ccc(S(=O)(=O)N3CCOCC3)cc2)n(-c2ccccc2)n1`, the “hERG current change (%, negative = inhibition) at 1uM” value was -7.66%. For the compound `COc1ccc(NC(=O)Cc2c[nH]c3ccccc23)cc1S(=O)(=O)N1CCOCC1`, the “hERG current change (%, negative = inhibition) at 1uM” value is 6.21%.

For the compound `COc1cc(OC)cc(C(=O)NC(=S)N2C[C@H]3C[C@H](C2)c2cccc(=O)n2C3)c1`, the “hERG current change (%, negative = inhibition) at 1uM” value came out at 13.9%.

For the compound `COc1ccc(NC2CCCN(C(=O)c3csc(C(C)C)n3)C2)cc1` (centres unmarked), the “hERG current change (%, negative = inhibition) at 1uM” value worked out at 13.5%. Consider `NS(=O)(=O)c1ccc(CCNS(=O)(=O)c2cccc(C(=O)O)c2)cc1`, for which the “hERG current change (%, negative = inhibition) at 1uM” value was determined as 14.6%. As for `CCOc1ccc(-n2ccnc(SCC(=O)Nc3cccc(OC)c3)c2=O)cc1`, the figure is 5%. Consider `O=C(OCc1nnc(-c2ccccc2)o1)c1ccc([N+](=O)[O-])o1`, for which the “hERG current change (%, negative = inhibition) at 1uM” value is 16.5%. The result for `CCC(=O)Nc1nc2ccc(NC(=O)COc3ccccc3)cc2s1` reads 21.3%; that for `COc1ccc(/C=N/N=C/c2c[nH]c(=O)c(C#N)c2Nc2ccccc2)cc1`, 18.5%. Turning to `NC(=S)NNC(=O)c1ccccc1Cl`, the “hERG current change (%, negative = inhibition) at 1uM” value was 11.1%. `CCn1c(SCC(=O)Nc2ccc3c(c2)OCCO3)nnc1-c1ccccn1`: the “hERG current change (%, negative = inhibition) at 1uM” value is -1.16%. As for `COC(=O)[C@@H]1[C@@H](C#N)C2(c3ccccc3-c3ccccc32)N(c2ccc(Cl)cc2)N1C#N`, the figure is 10.7%; as for `O=C(CCN1CCN(c2ccccc2)CC1)Nc1ccc(OCc2ccccc2)cc1`, 6.26%; as for `CC(C)c1cc(C(=O)N2CCCC(Nc3ccc(F)cc3)C2)nc(N)n1` (centres unmarked), 12.7%. The result for `Cc1ccc(S(=O)(=O)N2CCc3ccccc3C2)cc1C` reads 14.3%; that for `Cc1ccc(-c2nc3ccccc3c(=O)n2-c2cccc(C)n2)cc1`, 8.53%. As to `CCOC(=O)c1c(S(=O)(=O)N2CCN(C3CCCCC3)CC2)c(C)n(C)c1C`, the “hERG current change (%, negative = inhibition) at 1uM” value is -8.5%. As for `Cc1ccc(NC(=O)C2CCN(S(=O)(=O)c3c(C)[nH]c(=O)[nH]c3=O)CC2)cc1`, the figure is 10.7%; as for `Cc1nn(Cc2ccc(F)cc2)c(C)c1NC(=O)C1c2ccccc2Oc2ccccc21`, 15.3%.

Regarding `C=CCN1C(=O)C(CC(=O)O)SC1=Nc1cccc([N+](=O)[O-])c1` (centres unmarked), the “hERG current change (%, negative = inhibition) at 1uM” value came to 8.2%.

With `COC(=O)c1nn(-c2ccccc2)c(=O)cc1Sc1ccc(Cl)cc1`, the “hERG current change (%, negative = inhibition) at 1uM” value is on record as 14.8%. The result for `Cc1cccc(NC(=O)NCc2ccc3c(c2)OCO3)c1C` reads 13.2%; that for `COCCCNC(=O)C(=O)Nc1cc2c3c(c1)CCC(=O)N3CCC2`, 15.9%.

On to `COC(=O)c1ccc(/C=C(\C#N)c2ccccn2)cc1`, for which the “hERG current change (%, negative = inhibition) at 1uM” value worked out at 12.6%.

Source of the values: PMC4336329 (PLoS ONE, 2015).
